Data reported in PubChem BioAssay AID588855 (National Center for Advancing Translational Sciences (NCATS), 2011).
Values joined by “and” are separate entries in the source; they are usually repeats but may differ in a detail not shown here. Equal entries are not always repeated. Among all 410,000 compounds or so, about 5,000 (1.2%) were called active. The shares of active, inactive and inconclusive entries below differ from those in the screen. Calls come from the whole dose curve; as a rule, active = well fitted inhibition curve with a large enough effect; inconclusive = small, poorly fitted or top-dose-only effect; inactive = no such curve, though single readings can be large or run the other way. Potencies beside an inconclusive call are fits to weak or partial responses and may not hold up.

test: qHTS for Inhibitors of TGF-b; conditions: HepG2 CAGA-GFP TGF-b/SMAD3 reporter, GFP fluorescence, 18 h, TGF-beta stimulated, 500 pg/mL final; series mostly up to 46.1 µM; activity, negative = inhibition: at the top concentration; note: nearly all actives have a fitted effect of over 65% in size
Procedure, shortened: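 Read-out: total well GFP (ex488/em500-530) summed from mean per-cell fluorescence. Cells: HEPG2 CAGA-GFP, 1% FBS DMEM, 18 h at 37 degrees C with 500 pg/mL final TGF-beta. Unstimulated wells served as the full-inhibition control; stimulated DMSO wells = 0%.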
% is set by controls: 0 for no effect and ±100 for the full control effect; potency is the fitted concentration of half-maximal effect; tags give direction and shape of the fitted curve.

Compound | Potency | activity, negative = inhibition
Oc1ccccc1-c1nc(NC2CCCC2)c2ccccc2n1 | inconclusive: 35.5 µM [inhibitor, single point] | 
COCCn1c(N)c(N(Cc2ccccc2)C(=O)C(C)Oc2ccc(Br)cc2)c(=O)[nH]c1=O (configuration not stated) |  | inactive: 1.81%
O=C(CCNC(=O)c1ccccc1Cl)Nc1nc2ccccc2s1 |  | inactive: 3.56%
O=[N+]([O-])c1cc(C(F)(F)F)ccc1NC1CCN(Cc2ccccc2)CC1 |  | inactive: -19.1%
CCOC(=O)C1C(=O)C=C(c2cccs2)CC1c1ccccc1 (configuration not stated) |  | inactive: -24.9%
Cc1ccc(NC(=O)C2CCN(C(=O)c3sc4nc[nH]c(=O)c4c3C)CC2)cc1F | inconclusive: 5.62 µM [inhibitor, full curve] | 
CP(C)(=O)CCP(=O)(c1ccccc1)c1ccccc1 | inconclusive: 3.16 µM [inhibitor, single point] | 
O=C(c1ccc(Br)o1)N1N=C(c2ccc(Cl)cc2)CC1c1ccco1 (configuration not stated) | inconclusive: 11.2 µM [inhibitor, partial curve, poor fit] | 
O=Cc1ccc(O)cc1O |  | inactive: 6.75%
CC12CCC(C/C1=N\N=C1\NC(=O)/C(=C\c3cccc(Br)c3)S1)C2(C)C (configuration not stated) | inconclusive: 17.8 µM [inhibitor, single point] | 
CC(=O)c1c(O)cc(C(C)C)n(-c2ccccc2)c1=O | inconclusive: 3.98 µM [inhibitor, single point] | 
COc1ccc(Br)cc1/C=N/Nc1ccccn1 | inconclusive: 35.5 µM [inhibitor, single point] | 
Cc1ccc(S(=O)(=O)NCc2ccncc2)cc1 | inconclusive: 7.08 µM [inhibitor, full curve] | 
COc1ccc(NC(=O)C2CCCN(S(=O)(=O)c3ccc4[nH]c(=O)ccc4c3)C2)cc1Cl (configuration not stated) | inconclusive: 8.91 µM [inhibitor, partial curve, poor fit] | 
NC(=O)c1c(NC(=O)CS(=O)(=O)c2ccc(Cl)cc2)sc2c1CCCC2 | inconclusive: 6.31 µM [inhibitor, single point] | 
CCCN1CCN(CCCNC(=O)c2cc3c(s2)-c2c(C)cccc2OC3)CC1 | inconclusive: 17.8 µM [inhibitor, single point] and inconclusive: 25.1 µM [inhibitor, single point] | 
COc1ccc(-c2nc3c(c(=O)[nH]c(=O)n3Cc3ccccc3)n2Cc2ccccc2)cc1 | inconclusive: 8.91 µM [inhibitor, partial curve, poor fit] | 
Cc1cc(C(Br)(Br)Br)nc2ccccc12 | inconclusive: 12.6 µM [inhibitor, partial curve, poor fit] | 
COc1ccc(S(=O)(=O)N(CCc2ccccc2)CC(=O)Nc2cc(Cl)ccc2C)cc1 |  | inactive: -26.3%
O=C(CC(=O)c1ccccc1)Nc1ccc(Cl)cc1 | inconclusive: 15.8 µM [inhibitor, single point] | 
Cc1ccc(NS(=O)(=O)c2cccc3cccnc23)c(Br)c1 |  | inactive: 20.2%
COc1cccc(N/C(SCc2cccc([N+](=O)[O-])c2)=C(/C#N)C(N)=O)c1 | inconclusive: 35.5 µM [inhibitor, single point] | 
CCCCc1nc(SCCN2CCOCC2)c2c(=O)n(C)c(=O)n(C)c2n1 | inconclusive: 11.2 µM [inhibitor, single point] | 

Compound | Potency | activity, negative = inhibition
C(=N\N1CCN(c2ccccn2)CC1)/c1cccc2ccccc12 | inconclusive: 35.5 µM [inhibitor, single point] | 
CCOc1ccc(NC(=O)CN(C)C(=O)Cn2cnc3c2c(=O)n(C)c(=O)n3C)cc1OCC |  | inactive: -7.23%
CCn1ncc(Cl)c1C(=O)NC(=S)Nc1ccccc1Br |  | inactive: -0.161%
Cc1cccc(CSc2nc3ccccc3c(=O)n2C)c1 | inconclusive: 14.1 µM [inhibitor, single point] | 
Cc1ccc(OCCN2CCC2(C)C(=O)Nc2ccc3c(c2)OCCO3)cc1 (configuration not stated) | inconclusive: 35.5 µM [inhibitor, single point] | 
CCC(=O)Nc1ccc(F)c(Cl)c1 |  | inactive: 32.6%
Cc1ccc(NC(=O)C2CCN(S(=O)(=O)c3ccc4c(c3)oc(=O)n4C)CC2)cc1 |  | inactive: 7.46%
CC1CCCCC1NC(=O)CSc1nncs1 (configuration not stated) |  | inactive: -7.71%
COc1ccc(OC)c(-c2csc(NC(=O)Cc3cccs3)n2)c1 | inconclusive: 20 µM [inhibitor, single point] | 
CCc1cccc(C)c1NC(=O)c1cc(CN2CCCC2)on1 | inconclusive: 0.112 µM [inhibitor, full curve, poor fit] | 
Cc1ccc(NC(=O)c2ccccc2NS(=O)(=O)c2ccc(F)cc2)cc1S(=O)(=O)N1CCCCC1 | inconclusive: 2.82 µM [inhibitor, partial curve, poor fit] | 
Cc1ccc(Nc2nc(-c3ccc(O)c(O)c3)cs2)nc1 | inconclusive: 35.5 µM [inhibitor, single point] | 
COc1ccccc1N1CCN(/N=C/C=C\c2ccccc2[N+](=O)[O-])CC1 | inconclusive: 35.5 µM [inhibitor, single point] | 
COc1ccc(NC(=O)CC2C(=O)N(CCc3ccccc3)C(=S)N2Cc2cccnc2)cc1 (configuration not stated) | inconclusive: 35.5 µM [inhibitor, single point] | 
CCc1ccc(CNC(=O)c2ccc(Cn3c(=O)c4cccn4c4cccnc43)cc2)cc1 |  | inactive: -8.73%
O=C1CC(c2ccc3ccccc3c2)NN1 (configuration not stated) | inconclusive: 35.5 µM [inhibitor, single point] | 
CCCc1nnc(NC(=O)CSc2nnc3c4ccccc4n(CC)c3n2)s1 | inconclusive: 10 µM [inhibitor, partial curve] | 
COc1ccc(NS(=O)(=O)c2cccc(Cl)c2)cc1S(=O)(=O)N1CCCCC1 | inconclusive: 15.8 µM [inhibitor, single point] | 
CCCC(=O)NC(=S)Nc1cccc(NC(=O)c2ccccc2Cl)c1 | inconclusive: 25.1 µM [inhibitor, single point] | 
NC(Cc1ccccc1)c1csc(Nc2cc(Oc3ccccc3)ncn2)n1 (configuration not stated) | inconclusive: 35.5 µM [inhibitor, single point] | 
Cc1ccc(NC(=O)c2ccccc2)cc1C | inconclusive: 5.62 µM [inhibitor, single point] | 
O=C(Cn1ncc(Cl)c(Cl)c1=O)NC(=O)NC1CCCCC1 | inconclusive: 25.1 µM [inhibitor, single point] | 
COc1cc(C(O)c2nc(-c3ccc4ccccc4c3)cs2)ccc1F (configuration not stated) | inconclusive: 35.5 µM [inhibitor, single point] | 

Compound | Potency | activity, negative = inhibition
Cc1cc(F)ccc1NC(=O)C1CCCN(C(=O)c2cnn(-c3ccccc3)c2-n2cccc2)C1 (configuration not stated) | inconclusive: 8.91 µM [inhibitor, partial curve] | 
Cc1cc(C(=O)OCC(=O)Nc2ccc(S(=O)(=O)N3CCOCC3)cc2)c(C)o1 | inconclusive: 35.5 µM [inhibitor, single point] | 
Cc1cc(C)c(NC(=O)C(C)n2nc(C)c3sc4ccccc4c3c2=O)c(C)c1 (configuration not stated) | inconclusive: 5.62 µM [inhibitor, single point] | 
Cc1nc2ccc(NC(=O)c3cc(S(=O)(=O)N(C)c4ccccc4)ccc3Cl)cc2s1 |  | inactive: -18.6%
CC(CCc1ccccc1)NC(=O)CSc1n[nH]c(-c2ccccc2Cl)n1 (configuration not stated) | inconclusive: 35.5 µM [inhibitor, single point] | 
O=C(NCc1ccccn1)c1cc(-c2ccc(-c3ccccc3)cc2)nc2ccccc12 |  | inactive: -11.2%
CCC(C)(C)c1ccc(OCCCC[n+]2ccccc2)c(C(C)(C)CC)c1 | inconclusive: 14.1 µM [inhibitor, partial curve, poor fit] | 
O=C(Nc1ccc(F)cc1)[C@@H](c1ccccc1)N1Cc2ccccc2C1=O |  | inactive: -18.6%
O=C(Nc1cccc(Cl)c1)OCCOc1ccccc1 | inconclusive: 35.5 µM [inhibitor, single point] | 
O=C(/C=C/c1ccc(Cl)c([N+](=O)[O-])c1)c1cccnc1 | inconclusive: 35.5 µM [inhibitor, single point] | 
O=C(NCCS(=O)(=O)N1CCCCCC1)c1ccccc1 |  | inactive: 18.5%
COc1ccc(-c2csc3ncnc(N4CCN(c5ccccc5)CC4)c23)cc1 | inconclusive: 35.5 µM [inhibitor, single point] | 
COC(=O)c1ccc(OC)c(Cn2c(=O)n(-c3cccc(Cl)c3)c(=O)c3c4c(sc32)CN(C(C)=O)CC4)c1 | inconclusive: 1.26 µM [inhibitor, full curve, poor fit] | 
COC(=O)c1ccc(NC(=O)CC2C(=O)N(c3ccc(C)cc3)C(=O)N2CC(C)C)cc1 (configuration not stated) |  | inactive: -5.09%
Nc1nc(CN2CCN(c3cccc(Cl)c3)CC2)nc(N2CCCc3ccccc32)n1 | inconclusive: 11.2 µM [inhibitor, single point] | 
O=C(C[C@@H]1C/C=C\C[C@H](Cc2ccc(F)cc2)C(=O)OCCNC1=O)N[C@H](CO)Cc1ccccc1 |  | inactive: 2.6%
COCCCn1c(SCC(=O)Nc2ccccc2OC)nc2c(sc3ccccc32)c1=O | inconclusive: 2.51 µM [inhibitor, partial curve, poor fit] | 
COc1cc(-c2ccc3cc(OC)c(OC)c(OC)c3c2)cc(OC)c1OC | inconclusive: 10 µM [inhibitor, partial curve] | 
COc1ccccc1NC(=O)CSc1nc(=O)n2cc(C)ccc2n1 |  | inactive: -2.73%
COC(=O)c1ccc(Cn2c(O)c(N=NC(N)=S)c3ccccc32)o1 | inconclusive: 35.5 µM [inhibitor, partial curve, poor fit] | 
Cc1nnnn1/C(=C\c1ccccc1)C(=O)OCC(=O)N(C)C1CCS(=O)(=O)C1 (configuration not stated) |  | inactive: 33.3%
